Hit rate of the full screen: of about 310,000 compounds, about 14,000 (4.5%) showed an effect of 50% or more. The effect is printed as a negative number. The list shows a part of the results.
The molecules below were run against human ether-à-go-go-related gene (hERG) potassium channel (human, UniProt Q12809) (assay: primary screen, population patch clamp on CHO cells stably expressing hERG).
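Also: peak tail current of the secondary pulse compared with the same well before compound.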

Chain of human ether-à-go-go-related gene (hERG) potassium channel (Q12809 whole entry, looked up): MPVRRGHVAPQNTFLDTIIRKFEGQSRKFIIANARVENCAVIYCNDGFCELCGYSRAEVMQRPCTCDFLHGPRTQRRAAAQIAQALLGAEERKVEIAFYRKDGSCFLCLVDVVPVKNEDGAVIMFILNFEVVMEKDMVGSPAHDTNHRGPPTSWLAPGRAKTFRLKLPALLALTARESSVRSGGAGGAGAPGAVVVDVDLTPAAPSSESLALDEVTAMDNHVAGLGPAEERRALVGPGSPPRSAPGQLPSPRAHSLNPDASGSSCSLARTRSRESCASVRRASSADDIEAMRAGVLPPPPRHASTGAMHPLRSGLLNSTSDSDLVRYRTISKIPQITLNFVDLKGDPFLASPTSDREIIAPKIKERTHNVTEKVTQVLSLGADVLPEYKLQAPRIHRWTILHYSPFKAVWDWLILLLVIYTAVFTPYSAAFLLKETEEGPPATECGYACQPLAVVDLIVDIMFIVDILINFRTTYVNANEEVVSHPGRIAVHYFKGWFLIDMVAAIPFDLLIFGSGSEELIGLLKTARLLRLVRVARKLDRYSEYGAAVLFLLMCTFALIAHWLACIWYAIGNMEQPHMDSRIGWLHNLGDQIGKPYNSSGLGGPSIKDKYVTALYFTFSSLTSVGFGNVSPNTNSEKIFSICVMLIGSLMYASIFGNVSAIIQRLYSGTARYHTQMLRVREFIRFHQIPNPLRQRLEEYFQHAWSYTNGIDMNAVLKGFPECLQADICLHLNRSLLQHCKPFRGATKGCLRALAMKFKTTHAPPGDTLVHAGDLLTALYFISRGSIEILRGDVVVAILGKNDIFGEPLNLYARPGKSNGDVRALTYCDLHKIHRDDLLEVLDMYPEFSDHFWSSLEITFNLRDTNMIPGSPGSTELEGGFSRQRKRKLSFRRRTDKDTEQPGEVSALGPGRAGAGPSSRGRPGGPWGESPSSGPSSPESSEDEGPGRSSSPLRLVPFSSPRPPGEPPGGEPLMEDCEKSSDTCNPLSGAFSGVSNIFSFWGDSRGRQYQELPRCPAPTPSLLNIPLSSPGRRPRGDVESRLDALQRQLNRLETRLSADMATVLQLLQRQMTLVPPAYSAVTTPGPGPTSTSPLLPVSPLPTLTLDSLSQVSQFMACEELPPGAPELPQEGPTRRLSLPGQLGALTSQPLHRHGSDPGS

SMILES | hERG current change (%, negative = inhibition) at 10uM
CCOc1cc(C(=O)Nc2cc(C)on2)cc(OCC)c1OCC | 15.9%
CN(C)C(=O)COC(=O)c1ccccc1Sc1ccccc1C#N | 0.434%
CS(=O)(=O)N(CC(=O)NCCSCc1ccccc1)c1ccccc1Br | -4.22%
Cc1nn(Cc2ccccc2Cl)c2sc(C(=O)Nc3nccs3)cc12 | 3.32%
O=C(NNS(=O)(=O)c1ccc(CCCl)cc1)C(O)(c1ccccc1)c1ccccc1 | -55.9%
Clc1ccc(Cn2c(/C=C/c3ccco3)nc3ccccc32)cc1 | 0.0278%
CC1(C)CC(NC(=O)c2ccccc2)CC(C)(C)N1 | 13.2%
CCCC(C)NNC(=O)c1cc2ccccc2[nH]1 (stereo not drawn) | 7.95%
CCOc1ccc2nc(/N=C/c3c(C)[nH]n(-c4ccccc4)c3=O)sc2c1 | 17.9%
CCCCCNc1nc2sc3c(c2c(=O)n1-c1cccc(Cl)c1)CCN(C)C3 | -39.5%
CCN(CC)C(=O)Cn1ncc2c1-c1ccccc1OC2 | -1.35%
Cc1ccc(-n2c(SCC(=O)OC(C)C)nnc2-c2ccccn2)cc1 | -8.59%
COc1ccc(NC(=O)CSc2ncnc3c2cnn3Cc2ccccc2)cc1 | 17.1%
CC(=O)N/N=C(\C)CC(=O)Nc1ccc2c(c1)OCCO2 | 2.77%
Cc1ccsc1C(=O)N1CCN(C(=O)c2ccco2)CC1 | -10.4%
CCCn1c(/C=C/c2ccccc2)nc2ccccc21 | -28.4%
C=CCN1C(=O)C(CC(=O)NCC)SC1=Nc1ccccc1CC (stereo not drawn) | 0.167%
Cc1ccc(SCc2c(C#N)c3ccccc3n2C)cc1 | 4.99%
O=C(CCCSc1nc2ccccc2[nH]1)Nc1nnc(-c2ccccc2)o1 | -14.1%

SMILES | hERG current change (%, negative = inhibition) at 10uM
CCOC(=O)Nc1ccc2c(c1)N(C(=O)CCN1CCOCC1)c1ccccc1S2=O.Cl (stereo not drawn) | -18.5%
CN1CCN(CCCCOc2ccccc2C=O)CC1.O=C(O)C(=O)O | 0.13%
COc1ccc(C(=O)NNC(=S)NC(=O)c2ccccc2)cc1 | 23.7%
COc1ccc(C(=O)NC(C)CCc2ccccc2)cc1 (stereo not drawn) | -2.64%
Cc1ccc(C(=O)NCCNC(=O)COc2ccc(C)c(C)c2)cn1 | 4.82%
COc1ccc2cc(OC)c(C(=O)N3CCOCC3)cc2c1 | -8.24%
O=C(COC(=O)CN1C(=O)C2CCCCC2C1=O)Nc1ccc(S(=O)(=O)N2CCOCC2)cc1 (stereo not drawn) | 29.9%
CCCN1C(=O)C2(SC(NC(C)=O)=NN2C(C)=O)c2cc(C)cc(C)c21 (stereo not drawn) | -8.54%
Cc1ccc(N2CC(C(=O)Nc3ccc4c(c3)OCCO4)CC2=O)cc1 (stereo not drawn) | 16.2%
N#CC1=C(SCC(=O)NC2CC2)NC(=O)C(C#N)C12CCCCC2 (stereo not drawn) | 9.32%
COc1ccc(CC(=O)NNC(=O)CCc2ccccc2)cc1OC | 14.8%
CCC(NS(=O)(=O)c1ccc(OC)cc1)C(=O)NCCc1ccccc1 (stereo not drawn) | 11.3%
CCCc1cc(=O)[nH]c(SCC(=O)Nc2sc3c(c2C#N)CCC(C)C3)n1 (stereo not drawn) | 10.6%
O=C(/C=C/c1ccccc1Cl)N(Cc1ccc(Cl)cc1)C1CCS(=O)(=O)C1 (stereo not drawn) | 1.48%
CCOc1ccc(C(C(=O)NCC2CCCO2)N(C(=O)c2snc(C(N)=O)c2N)c2ccccc2F)cc1 (stereo not drawn) | -2.95%
CCc1nnc(NC(=O)CSc2nc3[nH]c(=O)cc(O)c3s2)s1 | -0.838%
CC1CCC(NC(=O)c2nn(C)c3c2CSc2ccccc2-3)CC1 (stereo not drawn) | 3.11%
O=C(CC12CC3CC(CC(C3)C1)C2)Nc1ccccc1N1CCOCC1 | 0.083%
Nc1cccc(NC(=O)CN2CCOCC2)c1 | 8.65%

SMILES | hERG current change (%, negative = inhibition) at 10uM
COc1ccccc1OCCC(=O)OCC(=O)Nc1cc(S(=O)(=O)N(C)C)ccc1Cl | -6.26%
COC(=O)C1=CN(Cc2ccc(OC)c(OC)c2)C=C(C(=O)OC)C1c1cccc(OC)c1OC | -5.15%
COc1ccc(Cc2noc(CN(C)CC3CCN(Cc4ccccc4)CC3)n2)cc1OC | -22.9%
Cc1ccc(S(=O)(=O)CCC(=O)OCC(=O)Nc2cc(C)on2)cc1 | 16%
O=C(CSc1ccccn1)Nc1ccc(Cl)cn1 | 11.7%
COc1ccccc1OCCNC(=O)C1CCN(C(C)=O)CC1 | 25.1%
Cc1cc(=O)[nH]c(S/C=C/c2ccccc2)n1 | -0.872%
CN1CC(=O)N(CC(=O)Nc2ccc3c(c2)CCC3)C1=O | 7.65%
CCCCN1CC[C@H]2C=CC[C@@H](C(=O)NCc3ccc(OC)cc3)[C@H]2C1=O | 2.71%
CC(C)CN(C(=O)CSc1nnc2ccccn12)C1CCS(=O)(=O)C1 (stereo not drawn) | 11.6%
CCCn1c(SCC(=O)Nc2cc(S(=O)(=O)N(C)C)ccc2OC)n[nH]c1=O | 17.6%
CC(=O)n1cc([C@H]2C=C(C(=O)Nc3ccccc3)O[C@@H](OCc3ccc(CO)cc3)C2)c2ccccc21 | -2.85%
CC1(C)CC(NCc2ccc3c(c2)OCO3)CCO1 (stereo not drawn) | 9.64%
CCOC(=O)c1[nH]c(C)c(CN(CCc2ccccc2)C(=O)CCC(=O)O)c1C | 11.7%
Cc1cc(/C=C(\C#N)C(=O)NC2CC2)c(C)[nH]1 | -13%
CCN(CC(=O)NCc1cccs1)C(=O)CCOc1ccccc1C | -19.8%
C=C(C)c1cccc(C(C)(C)NC(=O)NCc2cccnc2)c1 | 1.9%
CC(=O)OC(COc1ccc(F)cc1)Cn1cnc2ccccc21 (stereo not drawn) | -2.56%
COC(=O)C1=C(c2ccc(F)cc2OCc2ccccc2)C[C@@H]2CC[C@H]1N2C(=O)NCc1ccccc1Br | 5.03%

Source: article PMC4336329 (PLoS ONE, 2015)
